# From ChEMBL document CHEMBL5308541, “MAIP: An Open-Source Tool to Enrich High-Throughput Screening Output and Identify Novel, Druglike Molecules with Antimalarial Activity” (ACS Med Chem Lett, 2023)
# About 540 (0.36%) of roughly 150,000 compounds showed an effect of 50% or more. This is one part of the list.
# Tested on: Plasmodium falciparum
# Experiment: Primary screen in NF54 nanoGlo assay, in single point, at 2uM, 72h; a lower Z score goes with more inhibition
# Assay type: functional, Erythrocyte
# Settings: timepoint 72 hour
SMILES,% Inhibition [%],Z score
COc1ccccc1-c1noc([C@H](C)Nc2nc(-c3cccs3)nc3ccccc23)n1,-12,2.08
c1ccc(CCN2CCC(N3CCCN(Cc4cccs4)CC3)CC2)cc1,2,-0.29
CC1(C)CN(C(=O)NCc2coc3ccccc23)C[C@@]2(CCOC2)O1,-1,0.22
CCN(C1CCN(C(C)c2ccccc2)C1)S(=O)(=O)c1ccc(OC)c2ncccc12 (stereo unspecified),3,-0.56
c1csc(N2CCC(NCc3ccc(OC4CCCCC4)nc3)CC2)n1,2,-0.23
O=C1c2cccc3cccc(c23)C(=O)N1CCc1nc2ccccc2s1,-1,0.09
CCN(C)c1ccnc(NCc2cc(-c3cccc(OC)c3)no2)n1,-12,2.15
CCCOCC(=O)N1CCCCC[C@H](Nc2cc(C)nc(-c3ccncc3)n2)C1,-9,1.59
N#Cc1c(NCCCN2CCN(c3ccc(F)cc3)CC2)ncnc1N1CCOCC1,-5,0.87
C[C@H](NC(=O)N1CCc2ncncc2C1)c1cc(F)ccc1N(C)C,2,-0.35
O=C(Nc1nnc[nH]1)c1cc(NCc2ccccc2)nc2ccccc12,11,-2.43
COc1ccc2cc(C(=O)NC3CCN(c4cc(-c5cccs5)[nH]n4)CC3)[nH]c2c1,0,0.03
Cc1nc(NCCc2c[nH]c3c(C)cccc23)cc(C2CCNCC2)n1,13,-2.49
Cc1cc(N2CCC(NCCCN3CCCc4ccccc43)CC2)nc(N)n1,53,-8.02
Cn1ncnc1CCNC1CCN(c2cccc(-c3cc4ccccc4[nH]3)c2)CC1,16,-2.83
CC(=O)N1CCC[C@@](O)(C(=O)NCCc2ccc(Cl)c(Cl)c2)C1,4,-0.63
c1ccc(-c2ncn(Cc3ccco3)c2-c2ccc(-n3cncn3)cc2)cc1,-7,1.13
CCC(=O)N1CC[C@H](Nc2cc(C)nc3ccccc23)C1,-8,1.36
CC(CC1CCN(C(=O)OC(C)(C)C)CC1)NCC1(C)CCOC1 (stereo unspecified),-7,1.27
COc1cccc(-c2cc(C(=O)N(CCC(=O)N3CCN(C4CCCC4)CC3)CC(C)C)no2)c1,-3,0.61
CCS(=O)(=O)c1ccc(N2CCC(NC(=O)c3cc4c(C)cc(F)cc4[nH]3)CC2)cc1,-6,0.98

SMILES,% Inhibition [%],Z score
Clc1cnc(N[C@@H]2CCOC2)nc1N[C@@H]1CCOC1,-7,1.16
CNc1cc(N2CCC[C@@H]2CNc2cnc(C(=O)OC(C)(C)C)cn2)ncn1,-4,0.66
CN(C)c1ccc(CNCc2cnc(N)nc2N)cc1,1,-0.28
CCOC(=O)c1csc(C2CCN(Cc3nnc(C)n3C)CC2)n1,6,-0.85
CN(CC1CCN(Cc2ccccc2)CC1)c1nccc2ccncc12,19,-2.87
Cc1cnc(C2CCN(c3ccnc(N(C)C)n3)CC2)s1,0,-0.04
CC1(C)Cc2n[nH]cc2CN(C(=O)NC[C@H](Cc2ccccc2)C(F)(F)F)C1,1,-0.2
Cc1c(CN[C@H]2CCCN(CCCc3ccccc3)C2)c2ccccc2n1CC(N)=O,4,-0.79
CCc1cccc(N[C@@H]2C(=O)NCC23CCOCC3)c1,-2,0.34
N#Cc1nccc(N2CC[C@@](c3nc(-c4ccncc4)no3)(C(F)(F)F)C2)n1,-16,3.45
CN(C)c1nc(NCCN2CCC[C@H](CO)C2)ncc1F,-2,0.36
Cc1cccc(Cl)c1CNC(=O)c1ccc(-c2cc(-c3ccccc3)n[nH]2)cc1,-1,0.23
COCCn1cc(CCC(=O)N(C)CC2CCCN3CCCCC23)c2ccccc21 (stereo unspecified),-8,1.39
CN(CCCNc1cc(OC2CCOCC2)ncn1)CC(F)(F)F,-5,0.89
CCCCS(=O)(=O)NCc1c(C)noc1C,-3,0.53
OCCCNCc1cccc(-c2cccc(-c3cc[nH]n3)c2)c1,-6,1.02
O=C(c1ccc(N2CCC(NCc3cc(-c4ccccc4)on3)CC2)cc1)N1CCOCC1,-17,3.04
CN(C)C1CCN(C(C)(C)CNC2CCN3CCCC3C2)CC1 (stereo unspecified),0,-0.03
COc1ccc(C(=O)NCC2C3CCC4(CN(Cc5ccncc5)CC24)O3)cc1OC (stereo unspecified),-3,0.62
CN1CCC(NC[C@@]2(COc3ccc(C(F)(F)F)cn3)C[C@@H](O)[C@@H](O)C2)CC1,6,-0.95
Cc1c(-c2cc(C(=O)NC3CCC3NC3CCCCCC3)no2)cnn1C (stereo unspecified),-7,1.08

SMILES,% Inhibition [%],Z score
Cc1cc(N2CCN(C3CCCCC3)CC2)n2nc(C(F)(F)F)c(-c3ccccc3Cl)c2n1,-5,0.94
CN1CCC(Nc2ccccc2NC(=O)c2ccnc(N3CCOCC3)n2)CC1,-8,1.83
Cc1nc(NC[C@H]2CCOC3(CCC3)C2)c2cc[nH]c2n1,-7,1.07
COc1nccc(N2CCC(CC(=O)N3CCN(CC(=O)N4CCCC4)CC3)CC2)n1,-3,0.46
N[C@H]1C[C@@H](c2nnc(COc3cccc4c3CCCC4)n2C2CC2)C1,-2,0.48
Cn1cc(CC(=O)N2CCC(Oc3cccc4cccnc34)CC2)c2ccccc21,-4,0.73
O=C(Nc1nccc2ccncc12)[C@H]1CC[C@H](Nc2ncccn2)CC1,-10,1.99
CC1CCN(C2CCC(N[C@H]3CCCNCC3)CC2)CC1 (stereo partly specified),8,-1.37
Cc1cccc2[nH]cc(CCNS(=O)(=O)N(C)[C@@H](C)C3CC3)c12,-2,0.39
COCc1noc(-c2ccc(N(C)CCN3CCCC[C@@H]3C)nc2)n1,-5,1.18
Cc1oc(C(C)(C)C)cc1C(=O)N1CCN(c2cnn(C)c2)C(=O)C1,1,-0.15
Oc1cc(CN2CC(O)C(F)C2)nc2ccc(Cl)cc12 (stereo unspecified),-6,1.13
CN1CCN(CCc2ccc(N[C@H]3CCCN(Cc4ccccc4)C3(C)C)cc2)CC1,29,-5.85
CN(C(=O)C1CC=CC1)C1(C(N)=O)CCCC1,1,-0.1
Cc1ccc([C@@H](C)CCN2CCC(N3CCN(CCO)CC3)CC2)o1,4,-0.93
c1cncc(OCCCNC2CCC3(CCNCC3)CC2)c1,-1,0.21
COc1ccccc1N1CCC(N2CCC(N3CCC(C(=O)NC4CC4)CC3)CC2)CC1,-7,1.15
C[C@H](O)CNc1nc2ccccc2n1Cc1cccnc1C(F)(F)F,0,-0.03
Cc1nc2ccccc2c(O)c1CCC(=O)N1CCC[C@@](O)(CN(C)C)C1,-1,0.13
CCNC(=O)NC(=O)CN(CC)C[C@H](C)C(=O)OC,1,-0.3
Cc1n[nH]nc1C(=O)Nc1ccc2[nH]c(-c3cccc(F)c3)nc2c1,1,-0.2

SMILES,% Inhibition [%],Z score
Cc1nc(N2CCC(C(=O)N(C)Cc3cccc4cnccc34)CC2)nc2ccc(C(C)C)cc12,4,-0.77
O=C(N[C@@H](Cn1ccnc1)c1ccccc1)c1cc(-c2ccccc2O)n[nH]1,16,-3.26
Cc1nnc(-c2cccc(C(=O)OCc3cccc4[nH]ccc34)c2)o1,0,-0.01
Cc1nc(N(C)C[C@H]2CCCN(C)C2)c2cc[nH]c2n1,2,-0.4
CN(C[C@H]1CC(=O)N(C2CCCC2)C1)c1nc(N)c2cnn(C)c2n1,-3,0.48
Cc1ccc2c(NCc3cc(F)cc(F)c3)c(-c3nc(C4CC4)no3)cnc2n1,-6,1.16
FC(F)(F)CN1CCCN(CCCN2CCCCC2)CC1,0,-0.08
CCN1CCN(CCN2CC3(CCN(C(=O)[C@H]4CCCN4)CC3)OC2=O)CC1,7,-1.4
CN1CCC(N(C)C2CCCCC2N(C)C(=O)NC2CCCCNC2)CC1 (stereo unspecified),-1,0.13
COCc1cc(Cl)ccc1NC(=O)NCc1c(C(F)(F)F)cnn1C,-7,1.02
C1CCN(C2(CNC[C@H]3CCCNC3)CCCC2)CC1,5,-0.94
CS(=O)(=O)C1(Cn2ccnn2)CCCCC1,1,-0.13
O=C1CCCN1CC[C@H]1CCCCN1Cc1nc2ccccc2[nH]1,-1,0.24
Cc1cc(CCNC(=O)c2oc(C(C)C)nc2C)cc(C)c1O,-9,1.43
c1cn(Cc2ccc(NC[C@@H]3CCCN3)nc2)cn1,-14,2.72
Cc1[nH]c(=O)sc1S(=O)(=O)N[C@@H](C)c1ccc(F)cc1,-1,0.14
c1cc(NCCN2CCCOCC2)c2sccc2n1,15,-2.28
CC[C@@H](C(=O)N(C)Cc1cccc2ncccc12)N1CCOCC1,-8,1.44
Cc1nc([C@H](C)n2cnc(-c3ccccc3)c2-c2ccc3occc3c2)n[nH]1,-2,0.46
Cn1ccc2c(-c3ccccc3CN3CCNCC3)ccnc21,-7,1.14
